Data as given in the supplement of paper PMC11060735.
Where “and” joins values, the source holds several entries; their conditions need not be identical. Equal entries are not always repeated. Structures can show the parent of a compound that is named as a salt. Screen size: about 1,800 compounds; about 50 (3%) showed activity. This is one part of the list.

test system: mouse p16Ink4a+/- lung fibroblasts (INKBRITE, bleomycin-injured); test: percentage of GFP+ (p16Ink4a+) fibroblasts among all cells in well; higher = less depletion of p16Ink4a+ cells, active = 20 or less; details: 1 µM; 3 days
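Further: fibroblasts sorted 14 days after bleomycin, GFP+ and GFP− mixed 1:1 in 384-well plates (GFP− as in-well control), imaged after Hoechst and NucView530 staining, reference wells lacked compound.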

| Compound | percentage of GFP+ |
| --- | --- |
| CC(=O)O[C@@]12CO[C@@H]1C[C@H](O)[C@@]1(C)C(=O)[C@H](O)C3=C(C)[C@@H](O)C[C@@](O)([C@@H](OC(=O)c4ccccc4)[C@H]21)C3(C)C [10-Deacetylbaccatin-III] | inactive: 44.6% |
| C/C(=C\c1csc(C)n1)[C@@H]1C[C@@H]2O[C@]2(C)CCC[C@H](C)[C@H](O)[C@@H](C)C(=O)C(C)(C)[C@@H](O)CC(=O)O1 [Epothilone B, Patupilone] | inactive: 44.2% |
| O=c1cccc2n1C[C@@H]1CNC[C@H]2C1 [Cytisine] | inactive: 46.3% |
| CC(=O)Nc1ccc(OC[C@](C)(O)C(=O)Nc2ccc([N+](=O)[O-])c(C(F)(F)F)c2)cc1 [Andarine] | inactive: 44.7% |
| CC(=O)O[C@H]1C[C@@H]2CC[C@@H]3[C@H](CC[C@@]4(C)[C@H]3C[C@H]([N+]3(C)CCCCC3)[C@@H]4OC(C)=O)[C@@]2(C)C[C@@H]1[N+]1(C)CCCCC1 [Pancuronium] | inactive: 37% |
| CCCCCCCCCCCCCCCC[n+]1ccccc1 [Cetylpyridinium Bromide] | inactive: 45.2% |
| c1ccc2c(c1)Nc1ccccc1S2 [Phenothiazine] | inactive: 46.4% |
| C[C@H]1CCC/C=C/[C@@H]2C[C@H](O)C[C@H]2[C@H](O)/C=C/C(=O)O1 [Brefeldin A] | inactive: 23.3% |
| CC[C@H]1/C=C\C=C/C[C@@H](C)[C@H](O)[C@@](C)(O)C(=O)[C@@H](C)[C@H](O)[C@@H](C)C(=O)[C@@H](C)[C@H](O)[C@@H](C)/C=C/C(=O)O[C@@H]2C(C)[C@H](CC1)O[C@]1(CC[C@H](C)[C@H](C[C@@H](C)O)O1)[C@H]2C (some centres undefined) [Oligomycin A] | inactive: 36.1% |
| C[C@]12CCC(=O)C(O)=C1CC[C@@H]1[C@@H]2CC[C@]2(C)C(=O)CC[C@@H]12 [Formestane] | inactive: 37.6% |
| CCCN1CCO[C@H]2c3cc(O)ccc3OC[C@@H]21 | inactive: 42.6% |
| CCN1C[C@]2(OC(=O)c3ccccc3NC(C)=O)CC[C@H](OC)[C@]34C1[C@H](C[C@H]23)[C@@]1(O)C[C@H](OC)[C@H]2C[C@@H]4[C@]1(O)[C@H]2OC [Lappaconite HBr] | inactive: 46.6% |
| C#C[C@]1(O)C=C[C@H]2[C@@H]3CCC4=CC(=O)CC[C@@H]4[C@H]3CC[C@@]21CC [Gestodene] | inactive: 34.7% |
| C[C@]12N[C@H](Cc3ccccc31)c1ccccc12 [(+)-mk-801 Hydrogen Maleate] | inactive: 43.8% |
| CC[C@@H]1[C@@H](C)O[C@@](O)([C@@H](C)[C@H](O)[C@H](C)[C@H]2OC(=O)/C=C/C=C/[C@H](C)[C@H]([C@@H](C)[C@@H](O)[C@H](C)[C@@]3(O)C[C@@H](O[C@H]4C[C@H](O)[C@H](O)[C@H](C)O4)[C@H](CC)[C@@H](C)O3)OC(=O)/C=C/C=C/[C@H]2C)C[C@H]1O[C@H]1C[C@H](O)[C@H](O)[C@H](C)O1 [Elaiophylin] | active: 11.1% |
| CC[C@@H](C(N)=O)N1CCCC1=O [Levetiracetam] | inactive: 46.8% |
| CCC1(C)CC(=O)NC(=O)C1 [Bemegride] | inactive: 48.1% |
| Cc1sc2c(c1C)C(c1ccc(Cl)cc1)=N[C@@H](CC(=O)OC(C)(C)C)c1nnc(C)n1-2 | inactive: 23.8% |
| CN1[C@@H]2CC[C@H]1CC(OC(=O)C1C=Nc3ccccc31)C2 (some centres undefined) [Tropisetron] | inactive: 38.3% |
| CC(C)NCC(O)c1ccccc1Cl (centres undefined) [Clorprenaline] | inactive: 50.3% |
| CCOC(=O)c1cncn1C(C)c1ccccc1 (centres undefined) [Etomidate] | inactive: 43.8% |
| O=C(NCC1CCOCC1)c1cnc(Nc2ccc(Cl)cc2Cl)nc1C(F)(F)F | inactive: 44.7% |

| Compound | percentage of GFP+ |
| --- | --- |
| CN(C)C(=O)Oc1ccc[n+](C)c1 [Pyridostigmine] | inactive: 43.8% |
| O=[N+]([O-])c1ncc[nH]1 [Azomycin] | inactive: 43.5% |
| CCNC(=O)C[C@@H]1N=C(c2ccc(Cl)cc2)c2cc(OC)ccc2-n2c(C)nnc21 | inactive: 30.5% |
| c1cc2c(cc1[C@H]1OC[C@H]3[C@@H]1CO[C@@H]3c1ccc3c(c1)OCO3)OCO2 [Sesamin] | inactive: 37.7% |
| CN1CCN(c2nc3ccccc3nc2Cl)CC1 | inactive: 42.1% |
| Cn1c(CCCC(=O)O)nc2cc(N(CCCl)CCCl)ccc21 [Bendamustine] | inactive: 44.3% |
| Cc1cccc(C)c1NC(=O)CN1CCCC1=O [Nefiracetam] | inactive: 41.6% |
| CN1[C@@H]2C[C@@H](OC(=O)[C@H](CO)c3ccccc3)C[C@H]1[C@@H]1O[C@@H]12 [Scopolamine] | inactive: 45.1% |
| CNCC(O)c1ccc(O)cc1 (centres undefined) [Synephrine] | inactive: 43.9% and inactive: 48.2% |
| O=[N+]([O-])/C=C/c1ccc2c(c1)OCO2 | inactive: 35.6% |
| CN1C(=O)CCS(=O)(=O)C1c1ccc(Cl)cc1 (centres undefined) [Chlomezanone, Chlormezanone] | inactive: 36.4% |
| C[C@@H]1CC[C@H]2[C@@H](C)C(=O)O[C@@H]3O[C@@]4(C)CC[C@@H]1[C@]32OO4 [Artemisinin] | inactive: 39.6% |
| O=C(O)CNC(=O)c1c(O)c2ccccc2n(Cc2ccccc2)c1=O | inactive: 39.6% |
| N#C[C@H](O[C@@H]1O[C@H](CO[C@@H]2O[C@H](CO)[C@@H](O)[C@H](O)[C@H]2O)[C@@H](O)[C@H](O)[C@H]1O)c1ccccc1 [Amygdalin(d)] | inactive: 46.3% |
| CO[C@H]1CCC(O[C@H]2C[C@H]([C@]3(C)CC[C@]4(C[C@H](O)[C@@H](C)[C@@H]([C@@H](C)/C=C(\C)C(=O)[C@H](C)C[C@H](C)C(=O)O)O4)O3)O[C@]3(O[C@@H]([C@H]4O[C@@](O)(CO)[C@H](C)C[C@@H]4C)C[C@@H]3C)[C@@H]2C)O[C@@H]1C (some centres undefined) [Nanchangmycin] | active: 18.5% |
| Fc1cc(F)c2c(c1)[C@H]1C=CC[C@H]1C(c1cccnc1)N2 (some centres undefined) [Golgicide A] | inactive: 41% |
| OC(c1ccccc1)(c1ccccc1)C1CCNCC1 [Azacyclonol] | inactive: 28.6% |
| CC[C@@]1(O)C(=O)OCc2c1cc1n(c2=O)Cc2cc3ccccc3nc2-1 [Camptothecin] | inactive: 35.2% |
| C[C@@]12N[C@@H](Cc3ccccc31)c1ccccc12 [(-)-MK 801 Maleate] | inactive: 41.5% |
| Cc1sc2c(c1C)C(c1ccc(Cl)cc1)=N[C@@H](CC(=O)Nc1ccc(O)cc1)c1nnc(C)n1-2 | inactive: 24.8% |
| Cc1cccc(Cc2c[nH]cn2)c1C [Detomidine HCl] | inactive: 49.8% |
| CCN(CC)C(=O)c1ccc(C2=CC3(CCNCC3)Oc3cccc(O)c32)cc1 | inactive: 42.3% |

| Compound | percentage of GFP+ |
| --- | --- |
| CCc1c(C(=O)C(N)=O)c2c(OCC(=O)O)cccc2n1Cc1ccccc1 [Varespladib] | inactive: 35.3% |
| O=C(O[C@H]1C[C@H]2CC[C@@H](C1)[N+]21CCCC1)C(O)(c1ccccc1)c1ccccc1 [Trospium] | inactive: 48.4% |
| O=C1C=CC[C@@H]2[C@H]3CCCN4CCC[C@@H](CN12)[C@@H]34 [Sophocarpine] | inactive: 40.3% |
| COC[C@H]1OC(=O)c2coc3c2[C@@]1(C)C1=C(C3=O)[C@@H]2CCC(=O)[C@@]2(C)C[C@H]1OC(C)=O [Wortmannin] | inactive: 28.3% |
| CN1c2ccccc2C(NCCCCCCC(=O)O)c2ccc(Cl)cc2S1(=O)=O (centres undefined) [Tianeptine] | inactive: 29.5% |
| O=C(O[C@H]1C[N+]2(CCCOc3ccccc3)CCC1CC2)C(O)(c1cccs1)c1cccs1 [Aclidinium] | inactive: 49.3% |
| N#CC(C#N)=Cc1ccc(O)c(O)c1 | inactive: 38.7% |
| C[C@H]1CNCCc2ccc(Cl)cc21 [Lorcaserin] | inactive: 47.1% |
| CC(C)(C)c1cc(C=C(C#N)C#N)cc(C(C)(C)C)c1O [Tyrphostin A9] | inactive: 33% |
| CC(C)(C)c1cc(C=C(C#N)C#N)cc(Br)c1O | inactive: 40.7% |
| CN(C)[C@@H]1C(=O)C(C(N)=O)=C(O)[C@@]2(O)C(O)=C3C(=O)c4c(O)cccc4[C@@](C)(O)[C@H]3C[C@@H]12 [Tetracycline] | inactive: 36.8% |
| CCCN1C[C@H](CSC)C[C@@H]2c3cccc4[nH]cc(c34)C[C@H]21 [Pergolide] | inactive: 54.5% |
| CC(NC(C)(C)C)C(=O)c1cccc(Cl)c1 (centres undefined) | inactive: 53% |
| C[C@]12CC(C=O)=C(O)C[C@@H]1CC[C@@H]1[C@H]2CC[C@@]2(C)[C@H]1CC[C@@]2(C)O [Oxymetholone] | inactive: 47.4% |
| CN(C)[C@@H]1C(=O)C(C(N)=O)=C(O)[C@@]2(O)C(O)=C3C(=O)c4c(O)cccc4[C@@](C)(O)[C@H]3[C@H](O)[C@@H]12 [Oxytetracycline] | inactive: 42.3% |
| CN(C)CCc1ccc(O)cc1 [Hordenine] | inactive: 37.4% |
| COC1=C[C@@H]2[C@@H]3Cc4ccc(OC)c(O)c4[C@]2(CCN3C)CC1=O [Sinomenine] | inactive: 38.3% |
| CCC1(c2ccc(N)cc2)CCC(=O)NC1=O (racemic) [(¬±)-p-aminoglutethimide, Aminoglutethimide] | inactive: 40.7% |
| CC1(C)CC(O)CC(C)(C)N1O [Tempol] | inactive: 48.4% |
| CC[C@H](C(=O)[C@H](C)[C@@H](O)[C@@H](C)[C@@H]1O[C@@H]([C@@H](CC)C(=O)O)CC[C@H]1C)[C@H]1O[C@]2(C=C[C@@H](O)[C@]3(CC[C@@](C)([C@H]4CC[C@](O)(CC)[C@H](C)O4)O3)O2)[C@H](C)C[C@H]1C [Salinomycin] | inactive: 37.1% |
